Consider 37 compounds from the supplement of paper PMC9446081.

About 220 (0.56%) of roughly 39,000 compounds showed activity. Some of the results follow.
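Also: static incubation at 37 °C against the wild-type strain, values averaged over two biological replicates.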

The experiment concerns Escherichia coli K-12 BW25113. Kind of experiment: relative growth (OD600 normalised to plate interquartile mean) (fraction); higher = less growth inhibition, active = 0.2 or less. The settings on record: 50 µM; LB; incubation time: overnight (16-24 h).
In the case of `C[C@@H]1CC=CC[C@@H](c2cccc(Cl)c2)NC(=O)[C@H](Cc2ccccc2)N(C)C(=O)c2ccccc2O1`, the relative growth was inactive: 1.03.

Turning to `Cc1cc(C(=O)Nc2cccc3c2O[C@@H](CN(C)C(=O)Nc2c(C)noc2C)[C@@H](C)CN([C@@H](C)CO)C3=O)n(C)n1`, the relative growth was inactive: 0.884.

Take `CCCn1c(=O)[nH]c2nc(-c3ccc(S(=O)(=O)N4CCN(c5ccc(Cl)cc5)CC4)cc3)[nH]c2c1=O`: the relative growth was inactive: 1.01.

Turning to `COc1ccc(S(=O)(=O)Nc2cccc3c2O[C@@H](CN(C)S(=O)(=O)c2cccs2)[C@H](C)CN([C@H](C)CO)C3=O)cc1`, the relative growth was inactive: 1.01.

For `C[C@H]1CCCCO[C@H](CN(C)S(=O)(=O)c2ccc(Cl)cc2)[C@@H](C)CN([C@@H](C)CO)C(=O)c2cc(NS(=O)(=O)c3ccccc3)ccc2O1`, the relative growth was inactive: 1.03.

In the case of `C=CCC[C@@H](Cc1ccc(F)cc1)C(=O)O[C@@H](CNC(=O)[C@H](CC=C)CC(=O)N(CCO)Cc1ccccc1)c1ccccc1`, the relative growth is inactive: 1.06.

Take `COc1ccc([C@@H]([C@H](Cc2ccccc2)OC(C)=O)N2C[C@@H](OC(C)=O)[C@@H]3C(=NO[C@H]3c3ccccc3)[C@@H]2Cc2ccccc2)cc1`: the relative growth is inactive: 1.01.

Regarding `C[C@H](CO)N1C[C@H](C)[C@@H](CN(C)Cc2ccc(Cl)c(Cl)c2)OCCCC[C@H](C)Oc2ccc(NC(=O)Nc3ccc4c(c3)OCO4)cc2C1=O`, the relative growth was inactive: 0.99.

In the case of `C[C@@H]1CN([C@@H](C)CO)C(=O)c2cc(NC(=O)NC3CCCCC3)ccc2O[C@@H](C)CCCCO[C@@H]1CN(C)C(=O)NC1CCCCC1`, the relative growth was inactive: 0.971.

Turning to `Cn1cnc(S(=O)(=O)N2C[C@H](O)COC[C@H]3O[C@H](CC(=O)NC4Cc5ccccc5C4)CC[C@@H]32)c1`, the relative growth was inactive: 0.996.

As to `C[C@@H]1CN([C@H](C)CO)C(=O)Cc2cc(NS(=O)(=O)c3cn(C)cn3)ccc2O[C@@H]1CN(C)C(=O)Nc1ccc(F)cc1`, the relative growth was inactive: 0.983.

As for `CNC[C@H]1OCCCC[C@@H](C)Oc2ccc(NC(=O)Nc3cccc4ccccc34)cc2C(=O)N([C@H](C)CO)C[C@H]1C`, the relative growth is inactive: 0.968.

Take `COc1ccc([C@@H](O)[C@@H](CCO)OC)cc1O`: the relative growth was inactive: 0.988.

Turning to `C[C@H]1CN([C@@H](C)CO)C(=O)c2cc(NC(=O)Cc3ccccc3)ccc2O[C@H]1CN(C)S(=O)(=O)c1cn(C)cn1`, the relative growth is inactive: 0.972.

Turning to `CCOC(=O)c1c(C)oc(N)c1C(N)=O`, the relative growth was inactive: 0.956.

Turning to `C[C@H]1CN([C@@H](C)CO)C(=O)Cc2cc(NC(=O)Nc3ccc(F)cc3)ccc2O[C@H]1CN(C)S(=O)(=O)c1cn(C)cn1`, the relative growth was inactive: 0.996.

Consider `C[C@@H]1CN([C@H](C)CO)C(=O)c2cc(NC(=O)c3ccncc3)ccc2O[C@@H](C)CCCCO[C@H]1CN(C)Cc1ccc(Cl)c(Cl)c1`, for which the relative growth is inactive: 0.963.

Regarding `COCCNC(=O)C[C@H]1C[C@@H]2c3cc(NS(C)(=O)=O)ccc3O[C@@H]2[C@@H](CO)O1`, the relative growth is inactive: 1.03.

As for `C[C@@H]1CCCCO[C@H](CN(C)S(=O)(=O)c2cccs2)[C@@H](C)CN([C@H](C)CO)C(=O)c2cc(NC(=O)c3ccccc3)ccc2O1`, the relative growth was inactive: 1.07.

Take `C[C@@H]1CN([C@@H](C)CO)C(=O)Cc2cc(NC(=O)Nc3ccc(F)cc3)ccc2O[C@@H]1CN(C)C(=O)Nc1cccc2ccccc12`: the relative growth is inactive: 0.987.

For the compound `Nc1nnc(C(F)(F)F)[nH]1`, the relative growth is inactive: 1.02.

As for `COc1ccc(COC[C@]23NC(=O)N(C(=O)c4ccccc4)[C@H](c4ccccc4O2)[C@H]3CO[Si](C)(C)C(C)(C)C)cc1`, the relative growth is inactive: 1.02.

Regarding `C[C@@H]1CN(CCO[Si](C)(C)C(C)(C)C)C(=O)c2cc(NC(=O)Nc3ccccc3)ccc2O[C@@H](C)CCCCO[C@H]1CN(C)S(=O)(=O)c1ccc(F)cc1`, the relative growth is inactive: 1.

For `C[C@@H]1CN([C@H](C)CO)C(=O)c2cc(NS(=O)(=O)c3ccccc3)ccc2O[C@@H]1CN(C)S(=O)(=O)c1ccccc1`, the relative growth is inactive: 1.01.

Consider `CCS(=O)(=O)N1C[C@]2(CN(Cc3ccc4c(c3)OCO4)[C@@H](CO)c3c2c2ccc(cc2n3C)OC)C1`, for which the relative growth was inactive: 1.02.

As to `C[C@H]1CN([C@@H](C)CO)S(=O)(=O)c2ccc(-c3cccnc3)cc2O[C@H]1CN(C)C(=O)NC1CCCC1`, the relative growth was inactive: 1.05.

As for `COc1ccc(CN(C)C[C@H]2OCCCC[C@@H](C)Oc3ccc(NC(=O)Nc4cccc5ccccc45)cc3C(=O)N([C@@H](C)CO)C[C@@H]2C)cc1`, the relative growth was inactive: 0.979.

With `CC(C)CC#Cc1ccc2c(c1)O[C@@H](CN(C)C(=O)Cc1cccnc1)[C@H](C)CN([C@@H](C)CO)S2(=O)=O`, the relative growth was inactive: 0.998.

In the case of `C[C@H](CO)N1C[C@H](C)[C@@H](CN(C)C(=O)Nc2cccc3ccccc23)Oc2c(NC(=O)Nc3ccc(C(F)(F)F)cc3)cccc2C1=O`, the relative growth was inactive: 0.767.

Consider `COc1ccc(NC(=O)Nc2cccc3c2O[C@@H](CN(C)C(=O)Nc2cccc4ccccc24)[C@@H](C)CN([C@@H](C)CO)C3=O)cc1`, for which the relative growth is inactive: 1.01.

Consider `C[C@H](CO)N1C[C@H](C)[C@H](CN(C)C(=O)C2CCCCC2)OCCCC[C@H](C)Oc2ccc(NC(=O)Cc3ccccc3)cc2C1=O`, for which the relative growth was inactive: 1.02.

On to `S=P(N1CC1)(N1CC1)N1CC1`, for which the relative growth was inactive: 0.951.

Consider `C[C@H]1CN([C@@H](C)CO)C(=O)c2cc(NC(=O)Nc3cccc4ccccc34)ccc2O[C@H]1CN(C)Cc1ccncc1`, for which the relative growth was inactive: 0.972.

As to `Cc1ccc(S(=O)(=O)Nc2cccc3c2O[C@H](CN(C)S(=O)(=O)c2c(C)noc2C)[C@@H](C)CN([C@H](C)CO)C3=O)cc1`, the relative growth is inactive: 0.986.

With `COc1ccc(NC(=O)Nc2ccc3c(c2)C(=O)N([C@@H](C)CO)C[C@H](C)[C@H](CN(C)S(=O)(=O)c2ccc(C)cc2)OCCCC[C@@H](C)O3)cc1`, the relative growth is inactive: 1.03.

Turning to `C[C@@H]1CCCCO[C@H](CN(C)S(C)(=O)=O)[C@@H](C)CN([C@H](C)CO)C(=O)c2cc(NS(=O)(=O)c3cccs3)ccc2O1`, the relative growth was inactive: 0.977.

On to `O=C(CCCCCNC(=O)OCc1ccc(CO[C@H]2C[C@@H](c3coc4ccccc4c3=O)C=C(C(=O)N3CCN(Cc4ccccc4)CC3)O2)cc1)NO`, for which the relative growth is inactive: 0.996.
